The source of these data is the antibiotic and cytotoxicity screens of Wong et al. (2023).

This is one part of the list.

The assay concerns HSkMC (human skeletal muscle cells). Kind of assay: cytotoxicity call (relative viability < 0.9). The following applies: 10 µM.
As to `C[C@H](CO)N1C[C@H](C)[C@H](CN(C)C(=O)Nc2ccc(F)cc2)Oc2ncc(-c3cccc(C(F)(F)F)c3)cc2C1=O`, the cytotoxicity call is “inactive”.
Regarding `C[C@H]1CN([C@@H](C)CO)C(=O)c2cccc(NC(=O)Nc3ccc(C(F)(F)F)cc3)c2O[C@H]1CN(C)Cc1ccc(-c2ccccc2)cc1`, the cytotoxicity call was “inactive”.
As for `C[C@H]1CN([C@@H](C)CO)C(=O)Cc2cc(NC(=O)Cn3cnnn3)ccc2O[C@H]1CN(C)C(=O)Nc1ccc2c(c1)OCO2`, the cytotoxicity call is “inactive”.
With `C[C@H]1CN([C@@H](C)CO)S(=O)(=O)c2ccc(Br)cc2O[C@@H]1CN(C)C(=O)Cc1ccccc1`, the cytotoxicity call is “inactive”.
For the molecule `C[C@@H]1CN([C@@H](C)CO)C(=O)c2cccc(NS(=O)(=O)c3ccc(Cl)cc3)c2O[C@H]1CN(C)Cc1ccc(Oc2ccccc2)cc1`, the cytotoxicity call was “inactive”.
Take `CC(C)(C)N1C[C@H](C(=O)O)CC1=O`: the cytotoxicity call is “inactive”.
In the case of `C=CCOC[C@H]1NCCc2c1nnn2CC` it was “inactive”; in that of `C=CC[C@@H](CC(=O)N[C@@H](CO)Cc1ccccc1)C(=O)N1CCC[C@@H]1COC(=O)[C@@H](CC=C)NC(=O)OCC1c2ccccc2-c2ccccc21`, “inactive”; in that of `O=C(C[C@@H]1CC[C@H]2[C@@H](COC[C@H](O)CN2S(=O)(=O)c2ccccc2F)O1)NCc1ccccc1Cl`, “inactive”.
Take `CC(C)C#Cc1cnc2c(c1)C(=O)N([C@@H](C)CO)C[C@@H](C)[C@@H](CN(C)C(=O)c1ccc3c(c1)OCO3)O2`: the cytotoxicity call is “inactive”.
In the case of `C[C@H]1CN([C@@H](C)CO)C(=O)Cc2cc(NC(=O)Cc3ccccc3)ccc2O[C@@H]1CN(C)Cc1ccc(C(F)(F)F)cc1` it was “active”.
Take `CN(C)Cc1cn(CC[C@H]2CC[C@@H](NS(=O)(=O)c3ccccc3)[C@H](CO)O2)nn1`: the cytotoxicity call is “inactive”.
For `Cc1ccc(S(=O)(=O)Nc2ccc3c(c2)C(=O)N([C@H](C)CO)C[C@H](C)[C@H](CN(C)C(=O)CCC(F)(F)F)OCCCC[C@H](C)O3)cc1`, the cytotoxicity call is “inactive”.
`C[C@H]1CN([C@@H](C)CO)C(=O)Cc2cc(NC(=O)Nc3ccc(F)cc3)ccc2O[C@H]1CN(C)C(=O)Nc1ccc(C(F)(F)F)cc1`: the cytotoxicity call is “inactive”.
`C[C@H]1CN([C@@H](C)CO)C(=O)c2cc(NC(=O)CCCN(C)C)ccc2O[C@@H]1CN(C)C(=O)Nc1ccccc1`: the cytotoxicity call is “inactive”.
Turning to `C[C@H]1CN([C@@H](C)CO)C(=O)c2cccc(NC(=O)Nc3ccccc3)c2O[C@H]1CN(C)Cc1ccc(Oc2ccccc2)cc1`, the cytotoxicity call was “inactive”.
As for `C[C@@H]1CN([C@@H](C)CO)C(=O)Cc2cc(NS(=O)(=O)c3cccs3)ccc2O[C@H]1CN(C)S(=O)(=O)c1ccc(F)cc1`, the entry is “inactive”.
Consider `C[C@@H]1CN([C@@H](C)CO)S(=O)(=O)c2ccc(C3=CCCC3)cc2O[C@@H]1CN(C)C(=O)c1cnccn1`, for which the cytotoxicity call is “inactive”.
For the molecule `C[C@H]1CN([C@@H](C)CO)S(=O)(=O)c2ccc(C3=CCCCC3)cc2O[C@@H]1CN(C)C(=O)C1CCOCC1`, the cytotoxicity call was “inactive”.
Regarding `COc1ccc(S(=O)(=O)N(C)C[C@@H]2OCCCC[C@@H](C)Oc3ccc(NC(=O)Nc4ccc(C(F)(F)F)cc4)cc3C(=O)N([C@H](C)CO)C[C@H]2C)cc1`, the cytotoxicity call is “inactive”.
As for `c1ccc(Oc2ccncc2)cc1`, the cytotoxicity call was “inactive”.
As to `C[C@@H]1CN([C@H](C)CO)C(=O)c2cc(NS(=O)(=O)c3cn(C)cn3)ccc2O[C@H]1CN(C)CC1CCCCC1`, the cytotoxicity call was “inactive”.
Regarding `C[C@@H]1CN([C@H](C)CO)C(=O)Cc2cc(NC(=O)NC3CCCCC3)ccc2O[C@@H]1CN(C)Cc1ccc(C(F)(F)F)cc1`, the cytotoxicity call was “inactive”.
`O=C(NC(=O)N1CCOCC1)c1ccc(S(=O)(=O)N2CCOCC2)cc1`: the cytotoxicity call was “inactive”.
As for `C[C@H]1CN([C@@H](C)CO)C(=O)c2cccc(NC(=O)Nc3ccccc3)c2O[C@H]1CN(C)Cc1ccc(-c2ccccc2)cc1`, the cytotoxicity call is “inactive”.
As for `C[C@H]1CN([C@@H](C)CO)C(=O)Cc2cc(NC(=O)Cc3ccccc3)ccc2O[C@@H]1CN(C)S(C)(=O)=O`, the cytotoxicity call was “inactive”.
Take `O=C1N[C@@H]2[C@@H]1[C@H]1C=C[C@H]2C1`: the cytotoxicity call was “inactive”.
For the molecule `O=C(O)c1ccc(-c2ccccc2)cc1`, the cytotoxicity call was “inactive”.
On to `C[C@@H]1CN([C@@H](C)CO)C(=O)c2cc(NC(=O)NC3CCCCC3)ccc2O[C@@H](C)CCCCO[C@H]1CN(C)S(=O)(=O)c1cccs1`, for which the cytotoxicity call is “inactive”.
With `O=C(C1CCC1)N1CCOCC1`, the cytotoxicity call is “inactive”.
In the case of `Cc1ccccc1S(=O)(=O)N(C)C[C@@H]1Oc2ccc(NC(=O)Nc3cccc(C(F)(F)F)c3)cc2CC(=O)N([C@@H](C)CO)C[C@@H]1C` it was “active”; in that of `COc1ccc(NC(=O)Nc2ccc3c(c2)[C@H]2C[C@H](CC(=O)NCc4ccccn4)O[C@@H](CO)[C@H]2O3)cc1`, “inactive”.
For `OC[C@H]1O[C@@H](O)[C@@H](O)[C@@H](O)[C@@H]1O`, the cytotoxicity call is “inactive”.
With `COc1ccc(S(=O)(=O)Nc2ccc3c(c2)C(=O)N([C@@H](C)CO)C[C@@H](C)[C@@H](CN(C)C(=O)Nc2cccc4ccccc24)OCCCC[C@H](C)O3)cc1`, the cytotoxicity call was “inactive”.
As for `C[C@@H]1CCCCO[C@@H](CN(C)Cc2ccc(C(=O)O)cc2)[C@H](C)CN([C@H](C)CO)C(=O)c2cc(NS(=O)(=O)c3ccccc3)ccc2O1`, the entry is “inactive”; as for `C[C@@H]1CN([C@@H](C)CO)C(=O)c2cc(NC(=O)Nc3ccc(C(F)(F)F)cc3)ccc2O[C@@H]1CN(C)S(C)(=O)=O`, “inactive”.
As for `CC(C)[C@H]1CC[C@@H](C)C[C@@H]1NC(=O)c1cccc2ccccc12`, the entry is “inactive”.
Regarding `CN1CCN(C(=O)C[C@@H]2CC[C@H]3[C@H](COc4ccc(NC(=O)C5CCOCC5)cc4C(=O)N3C)O2)CC1`, the cytotoxicity call is “inactive”.
As to `C[C@@H]1CN([C@@H](C)CO)C(=O)c2cccc(NC(=O)CCCCCC(=O)Nc3ccccc3N)c2O[C@H]1CN(C)Cc1ccc(-c2ccccc2)cc1`, the cytotoxicity call is “inactive”.
On to `CN1CCN(C(=O)C[C@H]2CC[C@@H]3[C@@H](COc4ccc(NC(=O)c5cccs5)cc4C(=O)N3C)O2)CC1`, for which the cytotoxicity call was “inactive”.
